Reference: article PMC4336329 (PLoS ONE, 2015)
Out of some 310,000 compounds screened, about 2,200 (0.71%) showed an effect of 50% or more. Effects have a minus sign here. The list shows a part of the results.

molecular target: human ether-à-go-go-related gene (hERG) potassium channel (human, UniProt Q12809); test: primary screen, population patch clamp on CHO cells stably expressing hERG
Sequence (Q12809 whole entry, looked up): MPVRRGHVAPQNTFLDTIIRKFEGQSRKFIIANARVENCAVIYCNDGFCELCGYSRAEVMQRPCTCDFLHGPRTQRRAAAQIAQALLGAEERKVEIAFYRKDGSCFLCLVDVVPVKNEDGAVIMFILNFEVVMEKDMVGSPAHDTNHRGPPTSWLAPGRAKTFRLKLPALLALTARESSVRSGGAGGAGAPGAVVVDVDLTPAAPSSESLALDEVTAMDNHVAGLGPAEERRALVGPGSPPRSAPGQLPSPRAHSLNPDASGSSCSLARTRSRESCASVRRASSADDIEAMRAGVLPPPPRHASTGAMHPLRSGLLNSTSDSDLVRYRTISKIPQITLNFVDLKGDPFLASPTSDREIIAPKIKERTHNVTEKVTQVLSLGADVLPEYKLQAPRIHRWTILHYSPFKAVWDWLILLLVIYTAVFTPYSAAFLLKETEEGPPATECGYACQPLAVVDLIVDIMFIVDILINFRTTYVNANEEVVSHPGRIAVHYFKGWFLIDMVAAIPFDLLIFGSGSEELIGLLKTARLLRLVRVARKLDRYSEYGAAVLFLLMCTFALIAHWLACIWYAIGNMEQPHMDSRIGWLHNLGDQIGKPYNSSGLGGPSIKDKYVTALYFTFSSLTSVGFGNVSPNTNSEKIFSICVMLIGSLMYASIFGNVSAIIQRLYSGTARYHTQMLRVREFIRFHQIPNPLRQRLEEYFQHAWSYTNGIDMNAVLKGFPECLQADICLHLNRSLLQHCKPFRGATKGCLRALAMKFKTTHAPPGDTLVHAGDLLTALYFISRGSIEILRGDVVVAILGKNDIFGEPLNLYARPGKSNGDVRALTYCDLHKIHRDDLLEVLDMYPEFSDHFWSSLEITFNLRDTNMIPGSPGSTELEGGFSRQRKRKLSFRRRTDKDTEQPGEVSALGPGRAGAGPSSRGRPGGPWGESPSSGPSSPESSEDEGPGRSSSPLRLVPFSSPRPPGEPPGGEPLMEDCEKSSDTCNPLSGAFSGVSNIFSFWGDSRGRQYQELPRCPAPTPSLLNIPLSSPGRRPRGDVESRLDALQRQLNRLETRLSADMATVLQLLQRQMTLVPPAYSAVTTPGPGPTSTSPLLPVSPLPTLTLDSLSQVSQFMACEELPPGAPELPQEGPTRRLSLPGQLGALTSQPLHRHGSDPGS

Row | Compound | hERG current change (%, negative = inhibition) at 1uM [%]
1 | Cc1cc2c(SCC(=O)N3CCN(c4ccccc4)CC3)ncnc2s1 | 2.95
2 | O=C(/C=C/c1ccco1)c1ccccc1O | 21.3
3 | Cc1ccc(Nc2nc(N)nc(CN3CCCCCC3)n2)c(C)c1 | -21.7
4 | COCCNC(=O)CN1C(=O)NC2(CCCCCC2)C1=O | 7.55
5 | COc1ccc(C(C)=O)cc1COC(=O)CNC(=O)c1cc(C)cc(C)c1 | 10.2
6 | Cc1nnc(SCC(=O)N(C)Cc2ccccc2)[nH]c1=O | 9.19
7 | COCCNC(=O)c1ccc2c(c1)ncn2-c1ccc(C)c(Cl)c1 | -0.576
8 | CC1(C)Cc2c(sc(NC(=O)c3ccc(Br)o3)c2C#N)CO1 | 18.8
9 | Cc1onc(-c2ccccc2)c1C(=O)OCC(=O)Nc1ccc2c(c1)OCO2 | 14.5
10 | COc1ccc(N2C(=O)[C@@H]3[C@H](C2=O)[C@H](C(C)=O)N2c4ccccc4C=C[C@@H]32)cc1 | 9.17
11 | COc1ccccc1CN1C2CCCC1CC(NC(=O)/C=C/c1ccccc1)C2 (centres unmarked) | -43.8
12 | COC(=O)c1cc2occc2n1Cc1ccc(Cl)cc1 | 9.16
13 | O=C(NC12CC3CC(CC(C3)C1)C2)c1ccc(S(=O)(=O)N2CCOCC2)cc1 | 5.96
14 | O=C(Nc1nnc(C2CC2)s1)C1=NN(C2CCS(=O)(=O)C2)C(=O)CC1 (centres unmarked) | 1.62
15 | COc1ccc(C2N(Cc3ccccc3)CC(=O)N2/N=C(\C)c2ccccc2)cc1 (centres unmarked) | 10.9
16 | CCn1c(C)c(C)c2cc(C(=O)NCCCN3CCCCC3C)ccc21 (centres unmarked) | -5.33
17 | COc1ccc(N(C)S(=O)(=O)c2cccc(C(=O)NC3CCCCC3C)c2)cc1 (centres unmarked) | 11.8
18 | C#CCOC(=O)c1ccccc1C(=O)N(CC)CC | 21
19 | CCN(CC)Cc1cc(CCNC(=O)c2ccc(Cl)cc2)ccc1O | -4.58
20 | Cc1cc(C)n(C(=O)COc2ccccc2C)n1 | -0.37
21 | O=C1c2ccccc2C(=O)N1CN(C(=O)c1ccccc1)c1ccc(O)cc1 | 8.32
22 | COc1ccc(C2C(C#N)=C(N)Oc3cc(N)ccc32)cc1 (centres unmarked) | 11
23 | C/C=C/c1cc(CN2CCN(c3ccc(OC)cc3)CC2)c(O)c(OC)c1 | -8.96

Row | Compound | hERG current change (%, negative = inhibition) at 1uM [%]
24 | O=C(Nc1ccc(Cc2ccncc2)cc1)c1cc([N+](=O)[O-])ccc1N1CCOCC1 | -6.03
25 | O=C(Oc1cccc(Cl)c1)N1CCOCC1 | 8.48
26 | CCOC(=O)Cn1cc(Cl)c(=O)c(Cl)c1 | 0.0686
27 | Cc1cc(C)n2cc(COc3ccccc3)nc2n1 | 8.49
28 | C=CCOc1ccc(/C=C/C(=O)OCC(=O)N(C)C2CCS(=O)(=O)C2)cc1 (centres unmarked) | -4.87
29 | CC1CC(C)(C)N(C(=O)CN2CCN(C)CC2)c2ccccc21.O=C(O)C(=O)O (centres unmarked) | 11.7
30 | COc1ccccc1NC(=O)CN1CCN(CC(=O)Nc2ccc(F)cc2)CC1 | -87.4
31 | COc1ccc([N+](=O)[O-])cc1NC(=O)CSc1nc(C)c(C)c(C)n1 | 6.75
32 | CN(C)c1cccc(-c2nnc(SCCCC#N)o2)c1 | 0.892
33 | COc1ccc(Cl)cc1NC(=O)CSc1nnc(Cc2cccn2C)n1-c1ccc(F)cc1 | 2.71
34 | O=C(NC1CCCC1)c1ccc2c(c1)N(Cc1ccc(F)cc1)CCS2 | 9.23
35 | O=C(Nc1cccc(C(F)(F)F)c1)c1cc(S(=O)(=O)N2CCCCC2)ccc1N1CCOCC1 | 0.0815
36 | COC(=O)C(C)SC1=N/C(=C/c2ccc(-n3cncn3)cc2)C(=O)N1 (centres unmarked) | 6.88
37 | CC(=O)c1ccc(NC(=S)Nc2cccc(Cl)c2C)cc1 | 12.3
38 | O=C1C2CCN(CC2)[C@@H]1Cc1ccc2ccccc2c1O | -2.93
39 | CC(Oc1ccccc1)c1ccnn1S(C)(=O)=O (centres unmarked) | 13.5
40 | CCCCC(CC)CNC(=O)CCCCn1c(=O)[nH]c2ccsc2c1=O (centres unmarked) | 7.97
41 | CCN(CC)CC(=O)c1c(N)n(Cc2ccccc2)c(=O)n(C)c1=O | 10.2
42 | CC(C)c1nc(-c2ccc([N+](=O)[O-])cc2)cs1 | 9.64
43 | O=C(CCSc1ccc(Cl)cc1)N1CCCCCC1 | 3.95
44 | COc1ccc(C(CNS(=O)(=O)c2ccccc2)N2CCN(C)CC2)cc1 (centres unmarked) | -3.7
45 | CCOC(=O)CNC(=O)CN1C(=O)CC(c2ccco2)Sc2ccccc21 (centres unmarked) | -24.1
46 | Cc1nc(NC(=O)CSc2nc3ccccc3s2)sc1C(=O)N(C)C | 9.25

Row | Compound | hERG current change (%, negative = inhibition) at 1uM [%]
47 | COc1ccc(NC(=O)/C=C2\SC(=O)NC2=O)cc1 | 8.47
48 | O=C(CSc1cccc[n+]1[O-])N1CCCCCC1 | 11.7
49 | CCOc1ccc(OCC)c(NC(=O)C2CCCN(S(=O)(=O)c3c(C)noc3C)C2)c1 (centres unmarked) | 6.18
50 | COc1ccc(/C=C2\OC(=O)c3c(OC)cccc32)cc1OC | 13.1
51 | CN1CCN(Cc2ccc(N)cc2)CC1 | 3.71
52 | CC1=C(C)C(OCCCl)N(c2cc(O)c(Cl)cc2F)C1=O (centres unmarked) | 11.2
53 | COc1ccc(C2C(C(=O)Nc3cccc(C)n3)c3ccccc3C(=O)N2C)cc1OC (centres unmarked) | 0.676
54 | COc1ccccc1/C=C/C(=O)NC1CC2CCC1C2 (centres unmarked) | 4.97
55 | CCCCc1ccc(-c2ccc(Br)cc2O)nc1 | 5.41
56 | CCOC(=O)NC(Nc1nc2ccccc2s1)(C(=O)OCC)C(F)(F)F (centres unmarked) | 5.8
57 | O=C(NCCCN1CCOCC1)c1cc2c([nH]c3ccccc32)c(-c2cccc(Br)c2)n1 | 10.2
58 | Cc1cc(C)cc(C(=O)OCC(=O)Nc2cccc(S(=O)(=O)NC3=NCCCCC3)c2)c1 | 3.04
59 | CN(C)/N=C/c1cc(Cl)cc([N+](=O)[O-])c1O | 12.9
60 | CC1CCc2c(sc3ncn(N)c(=N)c23)C1 (centres unmarked) | 13.6
61 | CC(C)Nc1nnc(SC(C)C(=O)Nc2ccc(N3CCOCC3)cc2)s1 (centres unmarked) | 12.4
62 | CCOc1ccccc1NC(=O)Cc1coc2ccc(C)cc12 | 19.2
63 | COc1cccc(Cn2c(NCC(C)C)nc3c2c(=O)n(C)c(=O)n3C)c1 | -7.04
64 | CCOc1ccc(C(=O)CCC(=O)N(CC)CC(=O)NCc2cccs2)cc1 | -0.995
65 | N#CCc1nc(CSc2nc3ccccc3o2)cs1 | 11.5
66 | COCCNC(=S)N/N=C(\C)c1cccc(OC)c1 | 2.94
67 | CC(=O)c1ccc(C(=O)N2CCCC(CNC(=O)c3ccccc3Cl)C2)cc1 (centres unmarked) | 4.16
68 | CCO[C@H]1OC(C(=O)NC2CC2)=C[C@@H](c2csc3ccccc23)[C@@H]1CCCO | -1.5
69 | Cc1cc([N+](=O)[O-])nn1CC(=O)Nc1c(C)n(C)n(-c2ccccc2)c1=O | 6.23

Row | Compound | hERG current change (%, negative = inhibition) at 1uM [%]
70 | CC(C)c1ccc(NS(=O)(=O)c2cn(C)c(=O)n(C)c2=O)cc1 | 9.27
71 | COc1ccc(-c2nc[nH]c2[N+](=O)[O-])cc1 | 13.4
72 | O=C(CSc1nnc(-c2cccnc2)n1Cc1ccco1)c1ccc(Cl)cc1 | -21.1
73 | Cc1c(C(=O)Nc2ccc(S(N)(=O)=O)cc2)oc2ccc(Cl)cc12 | 14.8
74 | COCC(C)n1c(C)cc(C(=O)CSc2ccc(NC(C)=O)cc2)c1C (centres unmarked) | 1.1
75 | COC(=O)C1=C(c2cccc(C#N)c2)C[C@@H]2CC[C@H]1N2C(=O)NC(C)C | 18.6
76 | CC(C)Cn1c(N)c(C(=O)CSc2nnc(-c3ccco3)n2C)c(=O)n(C)c1=O | 10.7
77 | Cc1ccc2c(c1)C1CN(C)CCC1N2C(=O)c1cn(-c2ccccc2)nc1-c1ccccc1 (centres unmarked) | 5.01
78 | NS(=O)(=O)c1ccc(NC(=O)CSc2nc(Nc3ccccc3)nc(N3CCOCC3)n2)cc1 | 24.9
79 | CCNC(=O)c1nc[nH]c1C(=O)NCC | 6.65
80 | O=C(c1ccco1)N1CCN(C(c2coc3ccc(Cl)cc3c2=O)c2nnnn2C2CCCC2)CC1 (centres unmarked) | -5.06
81 | O=C(C(=O)N1CCCC1)c1c[nH]c2ccccc12 | 13.5
82 | CCN(c1cccc(C)c1)S(=O)(=O)c1ccc2c3c(cccc13)C(=O)N2 | 11.4
83 | CCCN(CC(=O)Nc1ccccc1OC)C(=O)Cc1ccccc1F | 10.4
84 | C[n+]1ccccc1C1CCCC/C1=N\Nc1ccc([N+](=O)[O-])cc1[N+](=O)[O-].[I-] (centres unmarked) | 4.39
85 | COc1ccc(/C=N/NC(=O)c2ccn[nH]2)cc1COc1ccc(F)cc1 | 17.4
86 | CC(=O)c1ccc(NC(=O)C(C)Sc2nnc(C3CCCCC3)o2)cc1 (centres unmarked) | 11.5
87 | O=S1(=O)N=C(N/N=C/c2ccc(Br)o2)c2ccccc21 | 8.15
88 | O=C1CN(CC(=O)NC2CCCc3ccccc32)CCN1 (centres unmarked) | 2.49
89 | O=C(Cn1cc(-c2nnnn2-c2ccc(Cl)cc2)c(=O)c2ccccc21)c1ccccc1 | 7.63
